Source: patent publication US6326466A, “Double-stranded RNA dependent protein kinase derived peptides to promote proliferation of cells and tissues in a controlled manner” (priority 1999, dated 2001)
Read-outs that look alike come from different tables or passages of the source. Not every detail of the peptide structures is certain; ends, links or a residue may be inferred. Some compounds share one wording; it may come from a single statement. Ends that are not written are not given here.

Legend:
[1] = test system: CD4 on HIV-1 infected MT-4 cells; assay: Expression of CD4 in surviving HIV-1 infected MT-4 cells (immunodetection); format: cell-based, human; conditions: for % CD4+ Positive Cells: surviving HIV-1 infected MT-4 cells
[2] = test system: HIV-1 infected human lymphoblastoid cell line MT-4; format: cell-based
3T3F44A fibroblast cells = assay: Cell proliferation around confluence (Coulter Counter cell counts); format: cell-based; conditions: 25 ug/ml added daily; for cell number: 10% FBS
[3] = test system: PKR from rabbit reticulocytes; assay: Protein kinase assay: dsRNA-dependent phosphorylation (activation) of PKR; format: biochemical; conditions: for IC50: TAR RNA 2 μg/ml, quantitation of autoradiograms, read-out: peptide concentration resulting in 50% reduction (inhibition) in PKR phosphorylation
[4] = biological target: T1, heme-regulated kinase (HRI) (Oryctolagus cuniculus, UniProt P33279); assay: Kinase assay for heme-regulated kinase (HRI); format: biochemical; conditions: 400 μM peptide
T1 construct: Kinase assays for HRI were essentially the same except purified HRI was used; from tissue

[5] = test system: PKR (substrate eIF-2 alpha); assay: Protein kinase assay: phosphorylation of eIF-2 alpha by PKR; format: biochemical, rabbit

T1 sequence (P33279 whole entry): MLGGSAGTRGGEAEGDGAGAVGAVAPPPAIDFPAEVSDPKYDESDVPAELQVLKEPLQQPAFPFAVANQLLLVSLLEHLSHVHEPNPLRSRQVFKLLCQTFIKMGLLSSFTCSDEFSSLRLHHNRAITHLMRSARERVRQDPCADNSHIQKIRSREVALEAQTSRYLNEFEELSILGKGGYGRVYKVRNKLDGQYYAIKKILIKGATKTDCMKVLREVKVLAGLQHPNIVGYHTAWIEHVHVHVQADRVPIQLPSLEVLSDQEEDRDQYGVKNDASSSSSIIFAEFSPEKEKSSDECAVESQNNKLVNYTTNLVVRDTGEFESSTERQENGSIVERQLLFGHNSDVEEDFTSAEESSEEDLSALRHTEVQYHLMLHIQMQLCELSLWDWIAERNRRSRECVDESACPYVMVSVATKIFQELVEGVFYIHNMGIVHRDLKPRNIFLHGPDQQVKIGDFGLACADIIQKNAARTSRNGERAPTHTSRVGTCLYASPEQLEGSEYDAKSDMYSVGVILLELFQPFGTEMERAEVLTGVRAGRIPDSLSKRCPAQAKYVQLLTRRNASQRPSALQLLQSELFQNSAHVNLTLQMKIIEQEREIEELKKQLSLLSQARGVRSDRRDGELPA

AAVALLPAVLLALLAPKKEAKNAAAKLAVEILNKEKK [SEQ ID NO:31]
number of cells expressing the CD4 receptor ([1]; HIV-1 infected MT-4 cells, compared to untreated cells): increase in number of cells expressing the CD4 receptor | % CD4+ Positive Cells ([1]; peptide 4 ugm/ml): 100% | % CD4+ Positive Cells ([1]; peptide 20 ugm/ml): 100% | % CD4+ Positive Cells ([1]; peptide 100 ugm/ml): 100% | % of Cell Death by HIV-1 Infection ([2]; 100 TCPD50 units, peptide 4 ugm/ml): 10% | % of Cell Death by HIV-1 Infection ([2]; 100 TCPD50 units, peptide 20 ugm/ml): 16% | % of Cell Death by HIV-1 Infection ([2]; 100 TCPD50 units, peptide 100 ugm/ml): 25% | % of Cell Death by HIV-1 Infection ([2]; 1000 TCPD50 units, peptide 4 ugm/ml): 25% | % of Cell Death by HIV-1 Infection ([2]; 1000 TCPD50 units, peptide 20 ugm/ml): 30% | % of Cell Death by HIV-1 Infection ([2]; 1000 TCPD50 units, peptide 100 ugm/ml): 40% | cell lysis (cell death) resulting from HIV-1 pathogenesis ([2]; MT-4 cells, 4-100 ugm/ml): significantly reduced cell lysis | increase in cell number relative to untreated controls (3T3F44A fibroblast cells; p<0.05%): 30% | cell number (3T3F44A fibroblast cells; Day 0 (confluence)): 2 million | cell number (3T3F44A fibroblast cells; Day 1 after confluence): 2.2 million | cell number (3T3F44A fibroblast cells; Day 2 after confluence): 2.2 million | cell number (3T3F44A fibroblast cells; Day -1 (one day prior to confluence)): matched the control cell number

AKGRSKQEAR [SEQ ID NO:1, AKGRSKQEAR]
inhibition of PKR activation [3]: inhibited PKR activation

AKGRSKQEARNAAAKLAVDIL [R1-peptide]
inhibition of PKR phosphorylation ([3]; 80 μM peptide, poly(I)-poly(C)): 75% | poly(I)-poly(C) dependent phosphorylation of PKR ([3]; 400 μM peptide): markedly prevent | inhibition of PKR phosphorylation ([3]; 400 μM peptide, TAR RNA): complete inhibition | IC50 [3]: 80 µM | effect on autophosphorylation of HRI or its substrate eIF-2 alpha [4]: little or no effect | inhibition of phosphorylation of eIF-2 alpha ([5]; 80 μM peptide): 75% | effect on phosphorylation of eIF-2 alpha ([5]; 80 μM peptide added after the kinase had already undergone phosphorylation and activation): no effect | inhibition of eIF-2 alpha phosphorylation ([5]; 400 μM peptide, in the presence of phosphorylated PKR): some inhibition

DMLPKKSEESAAPSR [Peptide 271, DMLPKKSEESAAPSR, reference compound]
poly(I)-poly(C) dependent phosphorylation of PKR ([3]; 600 μM peptide): no significant effect

KGSKNALAARVIAAQRELKD [Peptide 274, reference compound]
poly(I)-poly(C) dependent phosphorylation of PKR ([3]; 600 μM peptide): no significant effect

KKEAKNAAAKLAVEILNKEKK [hR1 peptide]
inhibition of PKR phosphorylation ([3]; 375 μM peptide, TAR RNA): 80% | inhibition of PKR phosphorylation ([3]; 375 μM peptide, poly(I)-poly(C)): 75% | poly(I)-poly(C) dependent phosphorylation of PKR ([3]; 400 μM peptide): markedly prevent | IC50 [3]: 150 µM

SSAARPSGRRRDPAG [Peptide 273, SSAARPSGRRRDPAG, reference compound]
poly(I)-poly(C) dependent phosphorylation of PKR ([3]; 600 μM peptide): no significant effect
